Test results taken from the RNAGym collection of RNA variant scans (doi:10.7554/elife.90254).
The source gives no read counts; variants with many changes may rest on few reads.

B1: LINE1-mini (parent)
chain: GGCAGAGCUCAACACAGCGUGGCAAAGUGGCUGUGGCUAGACUGCC

Variants of: B1
Test: self-cleavage, relative activity (ratio to wild type); higher = more cleavage; in vitro, sequencing; the parent is a self-cleaving ribozyme
G21C U28G G29A C46U gave a self-cleavage of 0.33. With G21C U28G G36U the self-cleavage was 0.01. With G21C U28G G44C the self-cleavage was 0.53. With G21C U28G G44U the self-cleavage was 0.19. In the case of G21C U38A A41G, the self-cleavage is reported as 0.1. In the case of G21C U43A C46U, the self-cleavage is reported as 0.02. With G21U A24C G27U G33U U43C the self-cleavage was 0.03. G21U A24C U28C G30U showed a self-cleavage of 0.12. G21U A24G G30A G36U showed a self-cleavage of 0.07. For G21U A24U G33C C37U, the self-cleavage was 0.04. With G21U A24U G40A U43C G44A the self-cleavage was 0.05. Variant G21U A25C G29C A39U has a self-cleavage of 0.13. G21U A25C G35U G36C showed a self-cleavage of 0.09. Work on G21U A25G G29U C31G G35U A39C yielded a self-cleavage of 0.04. For G21U A25G U32G C37G, the self-cleavage was 0.02. Variant G21U A25U C46G has a self-cleavage of 1.68. For G21U A25U G30U C37U, the self-cleavage was 0.03. In the case of G21U A25U G30U C46G, the self-cleavage is reported as 0.95. G21U A25U U43G G44U showed a self-cleavage of 0.39. G21U A26C C31G U32G showed a self-cleavage of 0.11. In the case of G21U A26G C31A, the self-cleavage is reported as 0.16. In the case of G21U A26G C37G, the self-cleavage is reported as 0. With G21U A26G G27C U28C the self-cleavage was 0.2. Variant G21U A26G G27U has a self-cleavage of 0.34. For G21U A26G U38C G40A, the self-cleavage was 0.27. G21U A26U G29U gave a self-cleavage of 1.02. With G21U A26U G30A C45G the self-cleavage was 0.45. Variant G21U A26U G35A has a self-cleavage of 0.07. Variant G21U A26U U34G G35U has a self-cleavage of 0.06. With G21U A39C C46U the self-cleavage was 0.1. In the case of G21U A39U A41C, the self-cleavage is reported as 0.08. Variant G21U A41C C42U has a self-cleavage of 0.05. Work on G21U A41U U43A G44U yielded a self-cleavage of 0.04. With G21U C23A A24U G33C the self-cleavage was 0.03. Variant G21U C23A G40C C42A has a self-cleavage of 0.15. G21U C23A U34C showed a self-cleavage of 0.11. With G21U C23G C46G the self-cleavage was 1.82. For G21U C23G G30U, the self-cleavage was 0.11. Work on G21U C23U A24U A25G yielded a self-cleavage of 0.06. For G21U C23U A26G A41U, the self-cleavage was 0.47. For G21U C23U C37A, the self-cleavage was 0.03. G21U C23U C45G showed a self-cleavage of 0.04. Variant G21U C23U G27A U38C C42A has a self-cleavage of 0.09. Variant G21U C23U G27U A41U has a self-cleavage of 1.07. G21U C23U G30U A41U gave a self-cleavage of 0.4. Variant G21U C23U G36A A41C has a self-cleavage of 0.11. Work on G21U C23U U43C yielded a self-cleavage of 0.13. In the case of G21U C31A C42G, the self-cleavage is reported as 0.05. For G21U C31A C45A, the self-cleavage was 0.07. For G21U C31A C46U, the self-cleavage was 0.45. Work on G21U C31A G36A C37A A41C G44U C46G yielded a self-cleavage of 0.03. In the case of G21U C31G G36C, the self-cleavage is reported as 0.02. For G21U C31U G36A U43C C46A, the self-cleavage was 0.03. G21U C31U U34C gave a self-cleavage of 0.05. Variant G21U C31U U43G C45U C46U has a self-cleavage of 0.02. With G21U C37G C46U the self-cleavage was 0.04. Variant G21U C37G G40C has a self-cleavage of 0.08. G21U C37G G44U showed a self-cleavage of 0.07. With G21U C37U U38C the self-cleavage was 0.01. In the case of G21U C42G C46G, the self-cleavage is reported as 0.1. Work on G21U C45U C46A yielded a self-cleavage of 1.27. Variant G21U G22A U34G has a self-cleavage of 0.33. G21U G22C A24G G33U showed a self-cleavage of 0.22. Work on G21U G22C C23A yielded a self-cleavage of 0.28. For G21U G22C G33A G40A, the self-cleavage was 0.09. G21U G22C G44A showed a self-cleavage of 0.4. With G21U G22U A24U A25G G27A G36U the self-cleavage was 0.1. With G21U G22U A26U G27U G35U the self-cleavage was 0.06. G21U G22U C23G showed a self-cleavage of 1.6. Variant G21U G22U G40C U43A has a self-cleavage of 0.08. Work on G21U G27A C37A yielded a self-cleavage of 0.4. Work on G21U G27A G35A G36A yielded a self-cleavage of 0.06. With G21U G27A G44U the self-cleavage was 0.19. G21U G27U A41G showed a self-cleavage of 0.12. G21U G27U U28A showed a self-cleavage of 0.15. For G21U G29C U43C, the self-cleavage was 0.02. For G21U G29U C31A U38G, the self-cleavage was 0.01. Work on G21U G29U C37G A41U yielded a self-cleavage of 0.04. In the case of G21U G29U C46A, the self-cleavage is reported as 0.72. With G21U G29U G44A the self-cleavage was 0.25. In the case of G21U G29U U38C, the self-cleavage is reported as 0.11. With G21U G29U U43A the self-cleavage was 0.05. Work on G21U G30A C31G yielded a self-cleavage of 0.19. In the case of G21U G30A C31U, the self-cleavage is reported as 0.1. In the case of G21U G30A G36U, the self-cleavage is reported as 0.02. G21U G30A U32G A39U showed a self-cleavage of 0.07. Variant G21U G30C C31A has a self-cleavage of 0.13. Variant G21U G30U C31A has a self-cleavage of 0.02. In the case of G21U G30U C42G C45A, the self-cleavage is reported as 0.01. For G21U G30U G33C G40C, the self-cleavage was 0.12. Work on G21U G30U G35U yielded a self-cleavage of 0.1. For G21U G33A U38G, the self-cleavage was 0.09. In the case of G21U G33C C37A, the self-cleavage is reported as 0.04. For G21U G33C C45A C46U, the self-cleavage was 0.05. With G21U G33C G40U the self-cleavage was 0.02. Work on G21U G33U A41G C46U yielded a self-cleavage of 0.35. In the case of G21U G33U C37A A41G, the self-cleavage is reported as 0.07. G21U G33U C37G gave a self-cleavage of 0.14. G21U G33U C46U gave a self-cleavage of 0.05. For G21U G33U G36C C46U, the self-cleavage was 0.07. Variant G21U G33U U43A has a self-cleavage of 0.01. G21U G35A G36A showed a self-cleavage of 0.22. For G21U G35C A41U, the self-cleavage was 0.31. Variant G21U G35U C42U C45A has a self-cleavage of 0.09. G21U G35U C46U gave a self-cleavage of 0.12. For G21U G35U G44A, the self-cleavage was 0.06. In the case of G21U G35U U38G G40U C42A G44U, the self-cleavage is reported as 0.05. G21U G36A A39U showed a self-cleavage of 0.2. With G21U G40A C42U the self-cleavage was 0.17. With G21U G40C C45A the self-cleavage was 0.47. G21U G40U C42U showed a self-cleavage of 0.29. Work on G21U U28C C42G yielded a self-cleavage of 0. G21U U28C G35U C37G showed a self-cleavage of 0.01. Work on G21U U28G C31U U38G yielded a self-cleavage of 0.02. Work on G21U U28G C37G A39U yielded a self-cleavage of 0.01. With G21U U32C G35U the self-cleavage was 0.01. For G21U U32C G36U, the self-cleavage was 0.18. G21U U32G C45G showed a self-cleavage of 0.02. Work on G21U U32G C46A yielded a self-cleavage of 0.06. With G21U U34A C37A G40A C42U the self-cleavage was 0.04. G21U U34A C42U gave a self-cleavage of 0.1. Variant G21U U34C A41G C46G has a self-cleavage of 0.03. For G21U U34C G40A, the self-cleavage was 0.04. G21U U34G G40U gave a self-cleavage of 0.27. In the case of G21U U38A C42U, the self-cleavage is reported as 0.07. Work on G21U U38A G40U yielded a self-cleavage of 0.04. In the case of G21U U38C C42U, the self-cleavage is reported as 0.28. G22A A24C C46A gave a self-cleavage of 0.34. Work on G22A A24C G40U yielded a self-cleavage of 0.5. Work on G22A A24C U38A yielded a self-cleavage of 0.28. With G22A A24G C31G G40C G44C the self-cleavage was 0.1. With G22A A24G G30C C46A the self-cleavage was 0.18. G22A A24G G44U showed a self-cleavage of 0.24. In the case of G22A A24U A25G U28A, the self-cleavage is reported as 0.15. In the case of G22A A24U G27C, the self-cleavage is reported as 0.24. In the case of G22A A25C G27A C31U G33U U34G A39G, the self-cleavage is reported as 0.01. G22A A25C U28G A39C showed a self-cleavage of 0.05. With G22A A25G G36C A41U U43C the self-cleavage was 0.01. G22A A26C G36C gave a self-cleavage of 0.05. G22A A26G C31A gave a self-cleavage of 0.09. Work on G22A A26G C31A G35U C37U yielded a self-cleavage of 0.01. For G22A A26G C31G, the self-cleavage was 0.04. G22A A26G U28A showed a self-cleavage of 0.37. G22A A26U G36U showed a self-cleavage of 0.1. G22A A39G C46U showed a self-cleavage of 0.09. For G22A A39U C42U, the self-cleavage was 0.13. Work on G22A A41C C45A yielded a self-cleavage of 0.12. G22A A41U C46U gave a self-cleavage of 0.25. In the case of G22A C23A A39C, the self-cleavage is reported as 0.05. G22A C23A G44U showed a self-cleavage of 0.12. In the case of G22A C23G U38G, the self-cleavage is reported as 0.03. With G22A C23U A25G C45A the self-cleavage was 1.53. With G22A C23U A25G G40U the self-cleavage was 0.15. For G22A C23U G40A G44C, the self-cleavage was 0.05. For G22A C23U U28A A41G, the self-cleavage was 0.15. With G22A C31A A39U G44U the self-cleavage was 0.01. Work on G22A C31G C37U yielded a self-cleavage of 0.03. With G22A C31G U32C the self-cleavage was 0.56. Variant G22A C31U U32C has a self-cleavage of 0.1. With G22A C31U U34G U38A the self-cleavage was 0.01. Work on G22A C42A C46U yielded a self-cleavage of 0.02. G22A C42G C46U showed a self-cleavage of 0.01. G22A G27A U34A C37U gave a self-cleavage of 0.02. Work on G22A G27C C31G yielded a self-cleavage of 0.04. Variant G22A G27C C45U has a self-cleavage of 0.17. In the case of G22A G27U C37A C45G, the self-cleavage is reported as 0.11. For G22A G27U G30A G44A C46G, the self-cleavage was 0.06.
